# Screen size: about 310,000 compounds; about 14,000 (4.5%) showed an effect of 50% or more. Effects have a minus sign here. The list shows a part of the results.
# Target: human ether-à-go-go-related gene (hERG) potassium channel (human, UniProt Q12809)
# Assay: primary screen, population patch clamp on CHO cells stably expressing hERG
# 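Further: peak tail current of the secondary pulse compared with the same well before compound.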
# human ether-à-go-go-related gene (hERG) potassium channel, sequence (Q12809 whole entry, looked up): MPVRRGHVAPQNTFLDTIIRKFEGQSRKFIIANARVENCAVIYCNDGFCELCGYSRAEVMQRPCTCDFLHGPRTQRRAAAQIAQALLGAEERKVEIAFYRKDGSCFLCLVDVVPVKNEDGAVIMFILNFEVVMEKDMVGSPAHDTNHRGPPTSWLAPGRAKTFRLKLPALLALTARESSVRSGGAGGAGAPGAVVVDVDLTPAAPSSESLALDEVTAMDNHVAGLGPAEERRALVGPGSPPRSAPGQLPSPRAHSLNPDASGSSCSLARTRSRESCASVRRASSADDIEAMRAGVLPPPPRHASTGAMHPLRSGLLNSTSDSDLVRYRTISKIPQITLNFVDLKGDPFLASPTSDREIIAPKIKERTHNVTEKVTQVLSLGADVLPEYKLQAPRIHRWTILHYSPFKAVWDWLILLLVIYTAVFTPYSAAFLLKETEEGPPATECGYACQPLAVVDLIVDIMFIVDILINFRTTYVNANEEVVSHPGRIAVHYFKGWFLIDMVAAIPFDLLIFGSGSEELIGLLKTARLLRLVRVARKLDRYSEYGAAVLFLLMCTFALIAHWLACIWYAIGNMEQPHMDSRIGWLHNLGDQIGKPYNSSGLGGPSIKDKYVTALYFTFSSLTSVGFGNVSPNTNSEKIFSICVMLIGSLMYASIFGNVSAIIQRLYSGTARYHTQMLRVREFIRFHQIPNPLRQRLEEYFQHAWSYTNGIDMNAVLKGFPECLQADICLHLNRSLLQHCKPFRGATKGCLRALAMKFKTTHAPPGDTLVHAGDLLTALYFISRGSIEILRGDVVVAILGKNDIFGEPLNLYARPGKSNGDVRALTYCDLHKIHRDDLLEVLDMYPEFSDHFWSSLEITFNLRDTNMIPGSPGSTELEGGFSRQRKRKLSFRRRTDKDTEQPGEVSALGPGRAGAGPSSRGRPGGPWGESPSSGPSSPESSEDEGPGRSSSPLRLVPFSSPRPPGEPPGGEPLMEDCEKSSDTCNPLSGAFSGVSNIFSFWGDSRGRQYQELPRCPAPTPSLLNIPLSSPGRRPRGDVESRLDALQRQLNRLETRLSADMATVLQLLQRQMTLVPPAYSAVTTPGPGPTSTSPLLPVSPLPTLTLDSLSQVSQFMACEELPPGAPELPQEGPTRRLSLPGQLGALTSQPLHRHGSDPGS
row,Structure (SMILES),"hERG current change (%, negative = inhibition) at 10uM [%]"
1,COc1ccccc1N1CCN(CC(=O)Nc2cc(F)ccc2C)CC1,-36
2,COc1ccc(C(=O)Cn2c(C(=O)/C=C/c3ccccc3)nc3ccccc32)cc1,-16.4
3,COc1ccc(S(=O)(=O)NCCSC(C)(C)C)cc1,0.49
4,Cc1c(C(=O)N(C)c2cccc(Cl)c2)cnn1-c1ccccc1,-9
5,O=C(Nc1ccc(C2CC2(Cl)Cl)cc1)c1cccc([N+](=O)[O-])c1 (stereo not shown),8.11
6,COc1ccc2c3c(c(=O)oc2c1OCC(N)=O)CCCC3,-5.39
7,CCOC(=O)C(C)Oc1cccc2c(=O)n(CC(=O)N3CCN(C(=O)OCC)CC3)ccc12 (stereo not shown),-0.563
8,COc1cccc(CN(C)C(=O)CSCC(=O)Nc2ccc(C)cc2)c1OC,-12.9
9,Cc1nn(Cc2ccc(F)cc2)c(Cl)c1/C=N/NC(=O)c1ccccc1,-16.9
10,COc1cccc(NC(=O)N2C3CCCC2CC(NC(C)=O)C3)c1 (stereo not shown),11.6
11,COc1ccc(NC(=O)CN(C)C(=O)CCC2CCCC2)cc1,5.49
12,CN1CCc2c(c3c(n2C)CCN(C)C3c2ccc(F)cc2)C1c1ccc(F)cc1.Cl (stereo not shown),-10.3
13,CCOC(=O)N/N=C/c1cn(CCCOc2ccc(C)cc2)c2ccccc12,9.47
14,Cc1nc2ccccc2cc1O,4.22
15,COc1ccc(C(=O)N2CCN(CCNC(=O)C(=O)Nc3ccc(Br)cc3)CC2)cc1,-80
16,CCc1nnc(NC(=O)CSc2ncc(-c3ccccc3)n2CC)s1,-17.9
17,CN=c1scc(-c2ccccc2Br)n1/N=C/c1ccc[nH]1,6.95
18,CN(C)c1nc(NC(C)(C)C)nc(NC(C)(C)C)n1,17
19,O=C(COC(=O)c1ccc2ccccc2n1)c1ccccc1,11.7
20,Cc1ccc([N+](=O)[O-])c(C(=O)N/N=C/c2cccs2)c1,2.86
21,Cc1cnc(C(=O)Nc2ccc(C)c(S(=O)(=O)N(C)C)c2)cn1,-9.47
22,COc1ccc(N(CC(=O)NCc2cccnc2)S(=O)(=O)c2ccccc2)c(OC)c1,-8.52
23,O=C(Nc1ccc(Cl)cc1C(=O)NCc1cccnc1)c1ccc(Cl)cc1Cl,-10.2
24,CCNC(=S)N1CCn2c(nc3ccccc32)C1,3.37
25,CCCCn1c(N)c(N(C)C(=O)c2cc3c(s2)CCCCC3)c(=O)[nH]c1=O,11
